# Assay results: article PMC4336329 (PLoS ONE, 2015)
# Screen size: about 310,000 compounds; about 14,000 (4.5%) showed an effect of 50% or more. Effects have a minus sign here. This is one part of the list.
# Molecular target: human ether-à-go-go-related gene (hERG) potassium channel (human, UniProt Q12809)
# Experiment: primary screen, population patch clamp on CHO cells stably expressing hERG
# 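Note: peak tail current of the secondary pulse compared with the same well before compound.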
# Chain of human ether-à-go-go-related gene (hERG) potassium channel (Q12809 whole entry, looked up): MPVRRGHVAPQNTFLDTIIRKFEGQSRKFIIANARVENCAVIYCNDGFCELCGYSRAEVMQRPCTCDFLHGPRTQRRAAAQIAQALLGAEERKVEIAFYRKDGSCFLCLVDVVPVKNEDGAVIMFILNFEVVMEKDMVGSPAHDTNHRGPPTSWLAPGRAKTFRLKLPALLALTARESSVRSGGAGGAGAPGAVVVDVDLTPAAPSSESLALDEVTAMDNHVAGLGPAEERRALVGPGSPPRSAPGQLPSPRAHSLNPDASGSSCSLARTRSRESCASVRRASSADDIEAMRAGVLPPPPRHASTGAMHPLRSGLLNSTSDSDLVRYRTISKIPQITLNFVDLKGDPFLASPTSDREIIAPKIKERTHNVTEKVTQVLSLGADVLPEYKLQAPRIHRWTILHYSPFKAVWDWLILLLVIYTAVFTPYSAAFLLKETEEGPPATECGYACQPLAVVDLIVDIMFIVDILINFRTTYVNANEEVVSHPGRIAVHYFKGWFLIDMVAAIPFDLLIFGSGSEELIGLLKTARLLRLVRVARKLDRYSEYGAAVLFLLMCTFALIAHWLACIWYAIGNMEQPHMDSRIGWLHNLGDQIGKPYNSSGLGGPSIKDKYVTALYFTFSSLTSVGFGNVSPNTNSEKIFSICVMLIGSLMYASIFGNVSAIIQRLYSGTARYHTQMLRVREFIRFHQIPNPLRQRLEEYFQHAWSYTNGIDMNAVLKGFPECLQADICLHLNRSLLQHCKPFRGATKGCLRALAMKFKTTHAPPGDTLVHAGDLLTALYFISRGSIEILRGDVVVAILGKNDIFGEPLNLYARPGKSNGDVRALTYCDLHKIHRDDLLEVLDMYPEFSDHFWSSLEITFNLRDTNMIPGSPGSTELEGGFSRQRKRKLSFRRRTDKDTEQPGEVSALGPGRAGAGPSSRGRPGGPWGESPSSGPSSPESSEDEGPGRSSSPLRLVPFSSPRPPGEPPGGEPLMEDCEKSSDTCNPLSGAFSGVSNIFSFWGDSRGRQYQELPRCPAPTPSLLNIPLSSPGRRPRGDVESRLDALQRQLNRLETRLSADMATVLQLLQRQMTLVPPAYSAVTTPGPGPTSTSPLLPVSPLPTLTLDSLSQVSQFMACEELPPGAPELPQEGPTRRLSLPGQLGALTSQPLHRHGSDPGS
row,SMILES,"hERG current change (%, negative = inhibition) at 10uM [%]"
1,COc1ccc(-c2cc(C(=O)Nc3ccccc3N3CCOCC3)c3ccccc3n2)cc1OC,7.48
2,CCn1c(SCC(=O)Nc2ccc(Br)cn2)nnc1C1CC1,-4.12
3,CCc1cc(C(c2ccc(OC)c(OC)c2)N2CCOCC2)c(NC(=O)c2ccccc2)s1 (stereo not drawn),-15.7
4,COc1ccc(C(=S)N2CCN(c3ccccc3Cl)CC2)cc1OC,-17.4
5,CCOc1ccccc1NC(=O)CN1CCCCCC1.Cl,14.7
6,COc1ccc(N(C(=O)c2ccccc2C)S(=O)(=O)c2cccs2)cc1,-3.67
7,O=C(CSc1nc(O)cc(=O)[nH]1)Nc1ccc2c(c1)CCC2,21.4
8,C=CCN=C1N[C@@H](c2ccccc2)C(C(=O)OC)=C(C)N1CCOC,-13
9,CCOc1cc(C(=O)N2CCCC2)cc(OCC)c1OCC,21.8
10,O=C(O)c1ccc2cccnc2c1O,16.8
11,CCCn1c(C)nc2c(c1=O)c1nc3ccccc3nc1n2CCC1=CCCCC1,-4.27
12,COc1ccc(Cl)cc1-n1c(C)cc(C(=O)OCC(=O)N2CC(=O)Nc3ccccc32)c1C,3.8
13,COC(=O)c1cc2ccccc2c(-c2c(O)ccc3ccccc23)c1O,-3.85
14,CC(=O)NC(Cc1c[nH]c2ccccc12)C(=O)NCCc1ccccn1 (stereo not drawn),22
15,O=C(NN1CCOCC1)c1ccc(Cl)c(Cl)c1,-47.3
16,CC(C(=O)OCC(=O)c1cccc([N+](=O)[O-])c1)N1C(=O)C2C3C=CC(C3)C2C1=O (stereo not drawn),-7.18
17,CCOc1ccc(-c2nn(-c3ccccc3)cc2/C=C2\SC(=S)N(Cc3ccco3)C2=O)cc1,5.21
18,Cn1c(OCc2ccc3c(c2)OCO3)nc2c1c(=O)n(Cc1cccc(Cl)c1)c(=O)n2C,-0.643
19,CC(=O)c1ccc(OCC(=O)N2CCCC(N3CCN(c4ccccc4C)CC3)C2)cc1 (stereo not drawn),-75.2

row,SMILES,"hERG current change (%, negative = inhibition) at 10uM [%]"
1,Cn1c(C(=O)NC2CC2)cc(=O)n(C)c1=O,-8
2,COC(=O)c1ccccc1S(=O)(=O)N1CCC(C(=O)OC(C)C(=O)NC(N)=O)CC1 (stereo not drawn),29.7
3,CCOC(=O)c1c(C)[nH]c(C)c1S(=O)(=O)NCCN1CCN(c2cc(Cl)ccc2C)CC1,15.5
4,Cc1ccc(CONC(=O)c2cccc(C)c2)cc1,-23.3
5,O=C1CC(N2CCN(S(=O)(=O)c3ccc(Cl)cc3)CC2)C(=O)N1CCc1ccccc1 (stereo not drawn),-48.2
6,COc1cc(OC)cc(-c2nnc(SCC(=O)N3CCCC3)o2)c1,-14.7
7,CN(C)CCCNC(=O)c1cc(C(=O)c2ccccc2)c[nH]1,10.5
8,Cc1ccc(S(=O)(=O)N/N=C/c2ccc(OC3CSC3)cc2)cc1,-5.47
9,CCC(=O)N1CCN(c2ccc(NC(=S)NC(=O)c3cc4ccccc4o3)cc2)CC1,6.52
10,CC1(C)CC(NS(=O)(=O)c2cccc3ccccc23)CC(C)(C)N1,2.15
11,O=C(Nc1ccccc1)NC1(C(=O)N2CCN(C(=O)c3ccco3)CC2)CCCCC1,0.526
12,Cc1cc(SCC(=O)OC(C)C(=O)N(C)c2ccccc2)nc2ccccc12 (stereo not drawn),4.79
13,CCN=C1S/C(=C\c2ccc(OC)c(OCC)c2)C(=O)N1CC,7.54
14,Cc1c2n(c3ccccc13)CCC2=O,12.8
15,OCCC1CN(Cc2cc3c(cc2Cl)OCO3)CCN1C1CCCC1 (stereo not drawn),-50.8
16,O=C(c1ccco1)N1CCCC(c2ccccc2)C1 (stereo not drawn),0.966
17,CCc1cccc(C)c1NC(=O)CCCN1C(=O)NC(C)(C)C1=O,-0.441
18,Cc1ccc(-c2cn3nc(C)c(C)nc3n2)cc1,-6.47
19,Cc1cc(-c2cc(C(=O)NCc3ccccc3)on2)nc(NC2CCCC2)n1,13

row,SMILES,"hERG current change (%, negative = inhibition) at 10uM [%]"
1,COc1ccc(CCNS(=O)(=O)c2cccc([N+](=O)[O-])c2)cc1OC,4
2,CC(/C=N/NC(=O)CSc1nc(C)cc(C)n1)=C\c1ccccc1,-1.5
3,Cc1ccccc1NC(=O)CCNS(=O)(=O)c1ccc2[nH]c(=O)oc2c1,4.53
4,Nc1nonc1-c1nc2ccccc2n1CC(=O)Nc1ccccc1,5.65
5,COc1ccc(OC)c(C(C)NC(=S)NC2CCCCC2)c1 (stereo not drawn),-6.58
6,COc1cc(C(=S)N2CCOCC2)ccc1OC(=O)c1ccc([N+](=O)[O-])cc1[N+](=O)[O-],17.1
7,CCOc1ccc(NC(=O)/C=C/c2ccc(OC)cc2)c([N+](=O)[O-])c1,12.2
8,COc1ccc(CCNS(=O)(=O)c2ccc3c(c2)NC(=O)CS3)cc1OC,5.81
9,Cc1ccc2c(c1)N(C(C)C(=O)NCc1ccccn1)C(=O)CO2 (stereo not drawn),5.06
10,NC(=O)CN1CCOCCOCCN(CC(N)=O)CCOCC1,-3.16
11,Cc1nc2ccc(NC(=O)c3ccccc3)cc2s1,2.56
12,COC(=O)c1ccc(C2Nc3ccccc3NC3=C2C(=O)CC(C)(C)C3)cc1 (stereo not drawn),8.58
13,CCOc1cc(/C=N/n2cnnc2)cc(Br)c1O,-2.33
14,O=C(CSc1ccc(F)cc1)Nc1ccc2c(c1)C(=O)NC2=O,-22.1
15,COc1ccc(CNC(=O)c2cncc(Br)c2)cc1,11.5
16,CCOc1ccc(C(=O)Nc2c3c(nn2-c2cccc(C)c2C)CS(=O)C3)cc1 (stereo not drawn),-11
17,O=C(NN1C(=O)C2CC=C(Cl)CC2C1=O)c1ccncc1 (stereo not drawn),21.1
18,O=C(CNC(=O)c1cccc(F)c1)OCC(=O)N1CCCc2ccccc21,-0.321
19,O=C(NN1C(=O)c2ccccc2NC1c1ccco1)c1ccc(Br)cc1 (stereo not drawn),-76.6
